This is an account of results in article PMC12521208.

Sequences of proteins named here, by UniProt entry; tags and fusion partners are left off. A change or cut given only in a name is not applied to a line headed by its entry. A line that says so, or that is headed by a name, gives the form on record, which may keep a tag or linker. Residues count along the entry.
UniProt Q99836: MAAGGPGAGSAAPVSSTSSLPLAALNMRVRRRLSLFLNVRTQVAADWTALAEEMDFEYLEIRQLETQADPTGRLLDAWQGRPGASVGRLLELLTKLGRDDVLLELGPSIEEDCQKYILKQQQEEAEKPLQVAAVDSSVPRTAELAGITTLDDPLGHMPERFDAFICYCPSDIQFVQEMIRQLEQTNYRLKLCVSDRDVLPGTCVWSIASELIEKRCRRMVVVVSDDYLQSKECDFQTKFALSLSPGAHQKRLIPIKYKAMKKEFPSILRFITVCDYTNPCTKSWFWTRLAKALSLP
human TLR4 WT-HA (O00206, residues 24-839): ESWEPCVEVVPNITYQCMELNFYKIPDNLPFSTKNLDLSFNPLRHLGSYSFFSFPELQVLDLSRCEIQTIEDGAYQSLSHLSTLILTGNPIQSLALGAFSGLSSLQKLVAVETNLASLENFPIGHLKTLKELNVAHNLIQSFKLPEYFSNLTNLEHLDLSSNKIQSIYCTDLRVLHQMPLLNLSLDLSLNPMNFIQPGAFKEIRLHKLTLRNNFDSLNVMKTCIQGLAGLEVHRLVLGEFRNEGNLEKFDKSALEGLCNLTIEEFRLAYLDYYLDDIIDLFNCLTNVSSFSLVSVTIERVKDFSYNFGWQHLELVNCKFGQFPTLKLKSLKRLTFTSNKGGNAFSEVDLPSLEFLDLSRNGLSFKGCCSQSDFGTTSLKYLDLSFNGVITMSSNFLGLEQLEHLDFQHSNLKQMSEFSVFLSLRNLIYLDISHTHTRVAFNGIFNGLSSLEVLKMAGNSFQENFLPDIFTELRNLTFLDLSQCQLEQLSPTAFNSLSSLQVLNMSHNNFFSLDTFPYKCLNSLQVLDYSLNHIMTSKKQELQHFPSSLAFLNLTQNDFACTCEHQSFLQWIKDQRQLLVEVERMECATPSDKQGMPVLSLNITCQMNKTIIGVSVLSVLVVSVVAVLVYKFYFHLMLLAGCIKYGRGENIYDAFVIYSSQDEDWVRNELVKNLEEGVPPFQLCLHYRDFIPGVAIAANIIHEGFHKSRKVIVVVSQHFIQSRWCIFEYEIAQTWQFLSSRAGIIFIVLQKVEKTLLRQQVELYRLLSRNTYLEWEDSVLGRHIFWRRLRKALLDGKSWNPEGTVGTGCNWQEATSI
human TLR4 p.(Arg763Cys)-HA (O00206, form named): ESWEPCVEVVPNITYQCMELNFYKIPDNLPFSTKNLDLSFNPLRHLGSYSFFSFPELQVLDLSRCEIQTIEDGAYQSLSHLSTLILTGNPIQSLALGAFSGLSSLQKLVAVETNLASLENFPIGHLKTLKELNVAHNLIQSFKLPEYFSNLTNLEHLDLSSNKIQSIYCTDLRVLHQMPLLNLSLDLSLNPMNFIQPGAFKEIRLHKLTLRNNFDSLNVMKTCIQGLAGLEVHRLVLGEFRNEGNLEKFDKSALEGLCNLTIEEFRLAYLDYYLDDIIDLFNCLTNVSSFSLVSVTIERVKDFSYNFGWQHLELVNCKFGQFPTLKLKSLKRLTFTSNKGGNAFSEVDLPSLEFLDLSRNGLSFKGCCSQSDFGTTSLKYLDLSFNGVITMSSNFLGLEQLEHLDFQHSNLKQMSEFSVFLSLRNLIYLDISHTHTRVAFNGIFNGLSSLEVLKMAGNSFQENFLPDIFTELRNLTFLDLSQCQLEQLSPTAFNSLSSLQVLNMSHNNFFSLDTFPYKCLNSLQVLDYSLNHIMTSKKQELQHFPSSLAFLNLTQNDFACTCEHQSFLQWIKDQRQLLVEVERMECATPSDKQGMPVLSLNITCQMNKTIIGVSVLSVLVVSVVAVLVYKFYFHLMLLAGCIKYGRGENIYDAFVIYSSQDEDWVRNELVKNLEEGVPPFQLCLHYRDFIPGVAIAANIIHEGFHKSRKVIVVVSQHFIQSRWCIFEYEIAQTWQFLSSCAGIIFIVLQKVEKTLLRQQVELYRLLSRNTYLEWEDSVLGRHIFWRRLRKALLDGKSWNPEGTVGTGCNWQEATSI
human TLR4 p.(Arg804Trp)-HA (O00206, form named): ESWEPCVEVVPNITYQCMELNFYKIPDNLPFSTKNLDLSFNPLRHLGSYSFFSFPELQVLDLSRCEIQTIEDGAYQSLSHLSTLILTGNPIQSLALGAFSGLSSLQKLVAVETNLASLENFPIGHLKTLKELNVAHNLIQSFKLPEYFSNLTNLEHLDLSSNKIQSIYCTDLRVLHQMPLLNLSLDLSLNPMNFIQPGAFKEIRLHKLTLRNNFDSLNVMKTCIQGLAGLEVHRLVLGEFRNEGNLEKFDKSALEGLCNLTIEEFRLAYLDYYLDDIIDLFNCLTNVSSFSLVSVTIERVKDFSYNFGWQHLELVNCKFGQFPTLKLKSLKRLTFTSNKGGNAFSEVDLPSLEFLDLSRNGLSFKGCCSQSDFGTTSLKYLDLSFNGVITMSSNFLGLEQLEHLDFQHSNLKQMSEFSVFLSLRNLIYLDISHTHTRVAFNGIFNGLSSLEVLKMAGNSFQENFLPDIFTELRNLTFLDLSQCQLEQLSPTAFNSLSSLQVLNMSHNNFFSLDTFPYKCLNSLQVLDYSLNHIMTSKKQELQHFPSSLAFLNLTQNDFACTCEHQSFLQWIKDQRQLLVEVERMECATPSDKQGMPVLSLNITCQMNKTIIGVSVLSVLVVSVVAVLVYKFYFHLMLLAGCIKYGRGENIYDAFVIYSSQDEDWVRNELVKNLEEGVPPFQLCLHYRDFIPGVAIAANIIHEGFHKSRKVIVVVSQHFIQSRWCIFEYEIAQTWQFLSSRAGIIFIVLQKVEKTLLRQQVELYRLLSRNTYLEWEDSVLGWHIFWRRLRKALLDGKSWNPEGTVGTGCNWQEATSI
human TLR4 p.(Gly715Ser)-HA (O00206, form named): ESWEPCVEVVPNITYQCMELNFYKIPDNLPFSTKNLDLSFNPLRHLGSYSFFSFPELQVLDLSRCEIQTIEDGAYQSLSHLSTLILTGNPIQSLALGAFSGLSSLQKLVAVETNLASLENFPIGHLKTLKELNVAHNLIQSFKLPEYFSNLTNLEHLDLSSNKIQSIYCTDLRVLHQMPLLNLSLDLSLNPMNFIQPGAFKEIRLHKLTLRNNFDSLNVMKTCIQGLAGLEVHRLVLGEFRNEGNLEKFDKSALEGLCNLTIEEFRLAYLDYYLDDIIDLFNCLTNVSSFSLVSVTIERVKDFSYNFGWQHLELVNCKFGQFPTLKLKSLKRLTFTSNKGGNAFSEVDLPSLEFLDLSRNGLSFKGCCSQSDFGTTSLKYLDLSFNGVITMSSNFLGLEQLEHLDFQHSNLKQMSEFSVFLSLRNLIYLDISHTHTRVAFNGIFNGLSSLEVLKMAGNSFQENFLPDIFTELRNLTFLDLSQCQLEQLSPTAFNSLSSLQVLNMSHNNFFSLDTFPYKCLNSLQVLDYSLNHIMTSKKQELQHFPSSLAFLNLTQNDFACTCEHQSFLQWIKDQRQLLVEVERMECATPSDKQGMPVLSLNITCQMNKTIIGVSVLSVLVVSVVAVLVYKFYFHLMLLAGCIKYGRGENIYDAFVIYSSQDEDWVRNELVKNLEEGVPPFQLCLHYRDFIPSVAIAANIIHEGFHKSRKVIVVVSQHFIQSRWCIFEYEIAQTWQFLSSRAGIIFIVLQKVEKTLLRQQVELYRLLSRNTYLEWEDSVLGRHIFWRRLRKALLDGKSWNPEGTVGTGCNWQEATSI
human TLR4 p.(Phe749Leu)-HA (O00206, form named): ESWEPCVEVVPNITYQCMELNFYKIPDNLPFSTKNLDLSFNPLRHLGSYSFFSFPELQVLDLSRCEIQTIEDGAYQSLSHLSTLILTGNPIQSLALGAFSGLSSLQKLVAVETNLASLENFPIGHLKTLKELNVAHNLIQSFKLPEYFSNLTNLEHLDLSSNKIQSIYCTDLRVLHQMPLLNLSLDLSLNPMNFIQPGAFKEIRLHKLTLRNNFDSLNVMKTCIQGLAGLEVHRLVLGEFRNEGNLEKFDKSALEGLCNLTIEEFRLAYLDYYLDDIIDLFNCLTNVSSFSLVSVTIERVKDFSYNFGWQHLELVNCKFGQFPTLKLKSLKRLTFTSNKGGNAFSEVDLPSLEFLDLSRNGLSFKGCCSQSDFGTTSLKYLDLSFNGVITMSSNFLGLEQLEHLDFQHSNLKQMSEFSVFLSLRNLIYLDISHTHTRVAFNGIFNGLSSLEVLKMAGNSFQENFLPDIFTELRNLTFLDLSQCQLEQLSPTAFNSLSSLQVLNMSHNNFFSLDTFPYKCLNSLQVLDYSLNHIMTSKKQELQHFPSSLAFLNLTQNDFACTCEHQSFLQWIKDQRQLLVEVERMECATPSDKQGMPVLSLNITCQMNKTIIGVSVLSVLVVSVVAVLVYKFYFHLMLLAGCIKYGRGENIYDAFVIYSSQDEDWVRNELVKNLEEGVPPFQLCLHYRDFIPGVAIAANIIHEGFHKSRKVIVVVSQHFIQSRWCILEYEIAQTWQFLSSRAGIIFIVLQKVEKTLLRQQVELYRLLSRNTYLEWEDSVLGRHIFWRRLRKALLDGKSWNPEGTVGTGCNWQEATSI
human TLR4 p.(Pro823Thr)-HA (O00206, form named): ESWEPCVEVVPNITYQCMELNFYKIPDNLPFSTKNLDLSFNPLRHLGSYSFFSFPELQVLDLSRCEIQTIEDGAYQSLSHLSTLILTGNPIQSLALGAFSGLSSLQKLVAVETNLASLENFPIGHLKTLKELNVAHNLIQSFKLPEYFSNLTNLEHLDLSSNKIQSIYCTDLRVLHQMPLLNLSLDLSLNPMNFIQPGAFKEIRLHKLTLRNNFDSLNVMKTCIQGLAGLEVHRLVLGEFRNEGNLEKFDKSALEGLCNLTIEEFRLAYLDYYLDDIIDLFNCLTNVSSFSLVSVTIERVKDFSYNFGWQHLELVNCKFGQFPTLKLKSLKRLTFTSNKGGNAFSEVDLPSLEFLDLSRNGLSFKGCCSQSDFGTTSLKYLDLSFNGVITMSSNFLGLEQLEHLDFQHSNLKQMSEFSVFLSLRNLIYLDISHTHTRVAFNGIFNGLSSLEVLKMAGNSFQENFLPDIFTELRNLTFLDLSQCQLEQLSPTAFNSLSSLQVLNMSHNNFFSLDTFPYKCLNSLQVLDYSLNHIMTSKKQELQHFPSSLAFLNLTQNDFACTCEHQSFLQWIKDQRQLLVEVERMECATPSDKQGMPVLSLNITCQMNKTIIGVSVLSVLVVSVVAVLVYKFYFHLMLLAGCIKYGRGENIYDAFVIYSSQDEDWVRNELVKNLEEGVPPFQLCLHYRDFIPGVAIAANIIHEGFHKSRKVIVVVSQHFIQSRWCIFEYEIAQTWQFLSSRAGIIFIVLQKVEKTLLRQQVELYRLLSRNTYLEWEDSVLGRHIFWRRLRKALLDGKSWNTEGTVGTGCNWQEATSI

These are yes or no findings as the source states them, for the method shown. Binding seen in cells or lysates may run through a third protein. Some binding calls cover weakened binding; strength is not graded here.

This test has as its target human Myd88-Flag (human) (UniProt Q99836). The test can be described thus: co-IP; HEK293T co-transfected with 8 µg TLR4 WT-HA or variant-HA and 8 µg Myd88-Flag; lysis in 50 mM Tris pH 7.4, 150 mM NaCl, 1% Triton X-100, 0.5% sodium deoxycholate, 0.1% SDS; overnight with HA-Trap or DYKDDDDK(flag)-Trap magnetic beads; blot with anti-HA or anti-Flag.

Turning to “human TLR4 WT-HA (from UniProt O00206 24-839) (receptor)”, the binding result was “binds”.

As for “human TLR4 p.(Arg763Cys)-HA (from UniProt O00206 24-839) (receptor)”, the binding result is on record as “no binding”.

For “human TLR4 p.(Arg804Trp)-HA (from UniProt O00206 24-839) (receptor)”, the binding result is reported as “no binding”.

In the case of “human TLR4 p.(Gly715Ser)-HA (from UniProt O00206 24-839) (receptor)”, the binding result is listed as “no binding”.

Consider “human TLR4 p.(Phe749Leu)-HA (from UniProt O00206 24-839) (receptor)”, for which the binding entry is recorded as “binds”.

With “human TLR4 p.(Pro823Thr)-HA (from UniProt O00206 24-839) (receptor)”, the binding result is on record as “binds”.
